Experimental data as given in PubChem BioAssay AID360 (National Center for Advancing Translational Sciences (NCATS), 2006).
Out of some 48,000 compounds screened, about 550 (1.1%) were called active. Inconclusive results (about 4%) are left out. Rule as the data show it: active = potency below about 15 µM; inconclusive = mostly about 16 µM to 33 µM; inactive = weaker than that. The list shows a part of the results.

biological target: Lysosomal acid glucosylceramidase (Homo sapiens) (UniProt P04062); assay: Glucocerebrosidase; settings: purified enzyme, resorufin glucoside fluorescence (screen aimed at inhibitors), 20 min;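 also: the screen sought inhibitors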
Method in brief: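 Normal human glucocerebrosidase (0.2 nM final) was assayed with resorufin β-D-glucopyranoside (30 uM final) in 50mM citric acid/KH2PO4, 10mM sodium taurocholate, 0.01% tween-20, pH 5.9. Compounds were titrated; fluorescence (Ex 548, Em 600) read after 20 min at RT.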
Potency is read from the fitted curve at half-maximal effect.

UniProt P04062, sequence (P04062 whole entry, looked up): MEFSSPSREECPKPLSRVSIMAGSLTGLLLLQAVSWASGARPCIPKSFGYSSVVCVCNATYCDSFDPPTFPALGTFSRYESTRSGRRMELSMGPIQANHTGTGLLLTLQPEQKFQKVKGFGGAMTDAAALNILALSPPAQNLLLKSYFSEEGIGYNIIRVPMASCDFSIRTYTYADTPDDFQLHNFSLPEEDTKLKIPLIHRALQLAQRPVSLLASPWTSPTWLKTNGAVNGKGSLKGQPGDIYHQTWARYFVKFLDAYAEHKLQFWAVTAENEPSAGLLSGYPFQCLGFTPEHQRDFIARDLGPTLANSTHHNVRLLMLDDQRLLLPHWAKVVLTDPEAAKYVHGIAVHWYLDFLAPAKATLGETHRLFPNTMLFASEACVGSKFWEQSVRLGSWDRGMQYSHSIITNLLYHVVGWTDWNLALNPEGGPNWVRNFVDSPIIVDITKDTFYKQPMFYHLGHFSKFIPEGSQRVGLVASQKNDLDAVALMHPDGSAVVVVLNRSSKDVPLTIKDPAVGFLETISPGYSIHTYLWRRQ

SMILES | Potency
N#Cc1ccc(COC(=O)CSc2nnc(C3CCCCC3)n2N)cc1 | inactive: > 76.9 µM
O=C(CCN1C(=O)COc2ccccc21)NCc1cccnc1 | inactive: > 76.9 µM
O=C(NC1CCCCCC1)C1c2ccccc2C(=O)N1Cc1ccco1 (configuration not stated) | inactive: > 76.9 µM
Cc1cc(C(F)F)n2nc(C(=O)Nc3cc(C)on3)nc2n1 | inactive: > 76.9 µM
COc1cc(NC(=O)CCn2c(=O)[nH]c3ccsc3c2=O)cc(OC)c1 | inactive: > 76.9 µM
CN(CC(=O)N1CC(=O)N(CCc2ccccc2)C(=O)C1)S(=O)(=O)c1cccc2nsnc12 | inactive: > 76.9 µM
CCOc1ccccc1OCCCC(=O)NC1=NCCS1 | inactive: > 76.9 µM
CC(=O)N1CCN(c2ccc(NCc3ccc(C(C)C)cc3)cc2)CC1 | active: 7.71 µM
COc1ccc(CCNC(=O)CCS(=O)(=O)c2ccc3c(c2)CCN3C(C)=O)cc1OC | inactive: > 76.9 µM
Cc1cc(=O)oc2cc(OC(C)C(=O)O)c(Cl)cc12 (configuration not stated) | inactive: > 76.9 µM
Cc1ccc2cc(C#N)c(N3CCCN(S(=O)(=O)c4ccccc4)CC3)nc2c1 | inactive: > 76.9 µM
COc1ccc(C2(C(=O)N3CCOCC3)CCOCC2)cc1OC | inactive: > 76.9 µM
Cc1ccc(NC(=O)CSCC(N)=O)cc1C | inactive: > 76.9 µM
Cc1nnc2sc(-c3cc4ccccc4o3)nn12 | inactive: > 76.9 µM
OC(CN1C2=NCCCN2c2ccccc21)c1ccc2c(c1)OCO2 (configuration not stated) | inactive: > 76.9 µM
N#Cc1cccc(NC(=O)c2ccccc2C(=O)O)c1 | inactive: > 76.9 µM
COc1ccc(Cl)cc1NC(=O)N(C)Cc1c(C)nn(C)c1C | inactive: > 76.9 µM
COc1ccccc1-n1c(SCC(=O)Nc2ccccc2F)nc2[nH]ncc2c1=O | inactive: > 76.9 µM
CCC(=O)N1CCc2cc(S(=O)(=O)CCC(=O)O)ccc21 | inactive: > 76.9 µM
CC(C)(C)c1ccc(-c2nnc3sc(-c4ccncc4)nn23)cc1 | inactive: > 76.9 µM
O=S(=O)(c1ccc(-c2csc(-c3cccnc3)n2)cc1)N1CCCCC1 | inactive: > 76.9 µM
Nn1c(SCC(=O)NC2CCCc3ccccc32)nnc1-c1cccs1 (configuration not stated) | inactive: > 76.9 µM
COC(=O)c1onc(C(=O)c2ccccc2)c1C(=O)OC | inactive: > 76.9 µM
CCn1c(SCC(=O)c2ccc3c(c2)OCCO3)nnc1C(C)C | inactive: > 76.9 µM

SMILES | Potency
Cc1cc(C)c(C)c(OCC(=O)NCC2CCCO2)c1 (configuration not stated) | inactive: > 76.9 µM
Cn1c(=O)[nH]c(=O)c2c1nc(Br)n2Cc1ccccc1F | inactive: > 76.9 µM
CN(C)C(=O)c1ccc(COc2ccccc2Br)o1 | inactive: > 76.9 µM
CCN=c1scc(C)n1/N=C/c1ccsc1 | inactive: > 76.9 µM
COCc1cc(C)nc(SCC(=O)Nc2ccc3c(c2)OCO3)c1C#N | inactive
CCOC(=O)N1CCC(NC(=O)C2CCN(c3nc(-c4ccc(OC)cc4)no3)CC2)CC1 | inactive: > 76.9 µM
Cc1ccc2nc(SCC(=O)O)nc(C)c2c1 | inactive: > 76.9 µM
CCN1C(=O)C(O)(CC(=O)c2ccc(-n3cccc3)cc2)c2ccccc21 (configuration not stated) | inactive: > 76.9 µM
COc1ccc(Br)cc1CNC(=O)C1CCCN(S(C)(=O)=O)C1 (configuration not stated) | inactive: > 76.9 µM
CCOc1ccc(OCC)c(NC(=O)C2COc3ccccc3O2)c1 (configuration not stated) | inactive: > 76.9 µM
CCOC(=O)c1ccc(NC(=O)CC2Sc3ncnn3C2=O)cc1 (configuration not stated) | inactive: > 76.9 µM
CCC(C)NC(=O)Cn1cnc2sc(C)cc2c1=O (configuration not stated) | inactive: > 76.9 µM
COCCNC(=O)CCc1nc(-c2ccccc2)no1 | inactive: > 76.9 µM
COc1ccc(-c2c(C#N)c(N)nc3c2CCCC3)cc1OC | inactive: > 76.9 µM
COc1cc2c(cc1OC)C1(NCC2)C(=O)Nc2ccccc21 (configuration not stated) | inactive: > 76.9 µM
CCN(CC)CCNS(=O)(=O)c1ccc(Cl)cc1 | inactive: > 76.9 µM
Cc1cc(C)nc(N2CCCC(C(=O)NCc3cccs3)C2)n1 (configuration not stated) | inactive: > 76.9 µM
O=C1CSC(c2cccnc2)N1C1CCCCC1 (configuration not stated) | inactive: > 76.9 µM
CN(C(=O)c1ccc(Cl)cc1)C1=CCCCC1CCC#N (configuration not stated) | inactive: > 76.9 µM
CC(C)(C)NC(=O)COC(=O)c1ccc(O)cc1 | inactive: > 76.9 µM
O=C(CSc1nnc(-c2ccccc2Br)o1)N1CCc2ccccc2C1 | inactive: > 76.9 µM
CN(C)/C=C1\C=C(c2ccccc2)OC1=O | inactive: > 76.9 µM
CCC(NC(=O)c1ccccc1O)c1ccccc1 (configuration not stated) | inactive: > 76.9 µM
